The labels stand for the following.
T1: RBFOX1 RRM RbFoxmut (Fox-RRM*) (Homo sapiens, UniProt Q9NWB1 109-208, R118D;E147R;N151S;E152T)
T1 sequence: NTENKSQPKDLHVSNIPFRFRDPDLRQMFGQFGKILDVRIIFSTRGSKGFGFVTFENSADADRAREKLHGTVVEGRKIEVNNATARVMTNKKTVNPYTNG

B1: AGUGUAG (DNA:RNA)
RNA: GGGAGACCGGAAUUCAGAUUGUCCAGUGUAGUUAAAUCCCGUCGUAGCCACCA
DNA 1: CAATCTGAATTCCGGTCTCCC
DNA 2: TGGTGGCTACGACGGGATT
B2: CUAGCGA (DNA:RNA)
RNA: B1 RNA with A25C, G26U, U27A, U29C, A30G, G31A
DNA 1: CAATCTGAATTCCGGTCTCCC
DNA 2: TGGTGGCTACGACGGGATT
B3: GUGUACC (DNA:RNA)
RNA: GGGAGACCGGAAUUCAGAUUGUCCGUGUACCUUAAAUCCCGUCGUAGCCACCA
DNA 1: CAATCTGAATTCCGGTCTCCC
DNA 2: TGGTGGCTACGACGGGATT
B4: GCGCCCG (DNA:RNA)
RNA: B3 RNA with U26C, U28C, A29C, C31G
DNA 1: CAATCTGAATTCCGGTCTCCC
DNA 2: TGGTGGCTACGACGGGATT
B5: UACCAGG (DNA:RNA)
RNA: B1 RNA with A25U, G26A, U27C, G28C, U29A, A30G
DNA 1: CAATCTGAATTCCGGTCTCCC
DNA 2: TGGTGGCTACGACGGGATT
B6: AAGUGAU (DNA:RNA)
RNA: B1 RNA with G26A, U27G, G28U, U29G, G31U
DNA 1: CAATCTGAATTCCGGTCTCCC
DNA 2: TGGTGGCTACGACGGGATT
B7: GCAAUGU (DNA:RNA)
RNA: B1 RNA with A25G, G26C, U27A, G28A, A30G, G31U
DNA 1: CAATCTGAATTCCGGTCTCCC
DNA 2: TGGTGGCTACGACGGGATT
B8: GACUCAA (DNA:RNA)
RNA: B3 RNA with U26A, G27C, A29C, C30A, C31A
DNA 1: CAATCTGAATTCCGGTCTCCC
DNA 2: TGGTGGCTACGACGGGATT
B9: GACAAUA (DNA:RNA)
RNA: B3 RNA with U26A, G27C, U28A, C30U, C31A
DNA 1: CAATCTGAATTCCGGTCTCCC
DNA 2: TGGTGGCTACGACGGGATT
B10: GUAAUUC (DNA:RNA)
RNA: B3 RNA with G27A, U28A, A29U, C30U
DNA 1: CAATCTGAATTCCGGTCTCCC
DNA 2: TGGTGGCTACGACGGGATT
B11: CGUUCUU (DNA:RNA)
RNA: B1 RNA with A25C, G28U, U29C, A30U, G31U
DNA 1: CAATCTGAATTCCGGTCTCCC
DNA 2: TGGTGGCTACGACGGGATT
B12: AUUUUGG (DNA:RNA)
RNA: B1 RNA with G26U, G28U, A30G
DNA 1: CAATCTGAATTCCGGTCTCCC
DNA 2: TGGTGGCTACGACGGGATT
B13: GCUCGUG (DNA:RNA)
RNA: B1 RNA with A25G, G26C, G28C, U29G, A30U
DNA 1: CAATCTGAATTCCGGTCTCCC
DNA 2: TGGTGGCTACGACGGGATT
B14: GCUCUGA (DNA:RNA)
RNA: B1 RNA with A25G, G26C, G28C, A30G, G31A
DNA 1: CAATCTGAATTCCGGTCTCCC
DNA 2: TGGTGGCTACGACGGGATT
B15: GGAGCCU (DNA:RNA)
RNA: B1 RNA with A25G, U27A, U29C, A30C, G31U
DNA 1: CAATCTGAATTCCGGTCTCCC
DNA 2: TGGTGGCTACGACGGGATT
B16: GAUCAAG (DNA:RNA)
RNA: B1 RNA with A25G, G26A, G28C, U29A
DNA 1: CAATCTGAATTCCGGTCTCCC
DNA 2: TGGTGGCTACGACGGGATT
B17: UAGCGUU (DNA:RNA)
RNA: B3 RNA with G25U, U26A, U28C, A29G, C30U, C31U
DNA 1: CAATCTGAATTCCGGTCTCCC
DNA 2: TGGTGGCTACGACGGGATT
B18: ACACAGC (DNA:RNA)
RNA: B3 RNA with G25A, U26C, G27A, U28C, C30G
DNA 1: CAATCTGAATTCCGGTCTCCC
DNA 2: TGGTGGCTACGACGGGATT
B19: AUCCCCA (DNA:RNA)
RNA: B3 RNA with G25A, G27C, U28C, A29C, C31A
DNA 1: CAATCTGAATTCCGGTCTCCC
DNA 2: TGGTGGCTACGACGGGATT
B20: UGAGCGU (DNA:RNA)
RNA: B1 RNA with A25U, U27A, U29C, A30G, G31U
DNA 1: CAATCTGAATTCCGGTCTCCC
DNA 2: TGGTGGCTACGACGGGATT

Numbering of substitutions follows the chain as printed; changes in the protein carry UniProt numbers. Some of the results follow.

The target in this test is T1, RBFOX1 RRM RbFoxmut (Fox-RRM*). In words: EMSA; HiTS-Eq, 1 nM pool, 10 min; buffer printed only for the single-RNA assays: 10 mM Tris pH 7.5, 150 mM NaCl, 3.4 mM EDTA, 0.001% NP-40, 30 C. The settings on record: tags: His6 N-terminal (pET28a); label: 5' 32P. Summed up: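 Relative association constants, normalised to the cognate motif, were derived by comparing read counts of each RNA species with those of the control reaction. The RNA sequenced was the free fraction, separated by 8% native PAGE after a 10 min equilibration in 50 µL of 1 nM 5′-radiolabelled RNA (7 randomized nucleotides) with increasing concentrations of purified wild-type or mutant RbFox RRM.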
On to B1, for which the binding signal is 0.165 KA relative to UGCAUGU.
On to B2, for which the binding signal was 0.0572 KA relative to UGCAUGU.
Consider B3, for which the binding signal was 0.134 KA relative to UGCAUGU.
For B4 the value was 0.101 KA relative to UGCAUGU.
As to B5, the binding signal was 0.0709 KA relative to UGCAUGU.
With B6, the binding signal was 0.0869 KA relative to UGCAUGU.
Consider B7, for which the binding signal was 0.12 KA relative to UGCAUGU.
Consider B8, for which the binding signal is 0.0967 KA relative to UGCAUGU.
As to B9, the binding signal is 0.0664 KA relative to UGCAUGU.
As for B10, the binding signal was 0.0904 KA relative to UGCAUGU.
On to B11, for which the binding signal is 0.0679 KA relative to UGCAUGU.
Consider B12, for which the binding signal was 0.0718 KA relative to UGCAUGU.
On to B13, for which the binding signal was 0.174 KA relative to UGCAUGU.
With B14, the binding signal is 0.0764 KA relative to UGCAUGU.
B15: the binding signal is 0.0778 KA relative to UGCAUGU.
With B16, the binding signal was 0.0749 KA relative to UGCAUGU.
As for B17, the binding signal is 0.0979 KA relative to UGCAUGU.
In the case of B18, the binding signal is 0.0623 KA relative to UGCAUGU.
For B19 the value was 0.089 KA relative to UGCAUGU; for B20, 0.132 KA relative to UGCAUGU.

For the origin of these results see paper PMC9911399, “Two distinct binding modes provide the RNA-binding protein RbFox with extraordinary sequence specificity”.
